Source: patent publication US20260216242A1 (ALMAC DISCOVERY, published 2026)

Assays:
[1] = target: T1, Human ALPPL2 (leucine zipper) (human); test: BLI, KD 1:1 (Fc fusion captured on AHC sensor)
T1 construct: Soluble human ALPPL2 fused to a disulphide stabilised leucine zipper and a His tag; The whole entry is the construct; also called hALPPL2; ALPG
T1 chain: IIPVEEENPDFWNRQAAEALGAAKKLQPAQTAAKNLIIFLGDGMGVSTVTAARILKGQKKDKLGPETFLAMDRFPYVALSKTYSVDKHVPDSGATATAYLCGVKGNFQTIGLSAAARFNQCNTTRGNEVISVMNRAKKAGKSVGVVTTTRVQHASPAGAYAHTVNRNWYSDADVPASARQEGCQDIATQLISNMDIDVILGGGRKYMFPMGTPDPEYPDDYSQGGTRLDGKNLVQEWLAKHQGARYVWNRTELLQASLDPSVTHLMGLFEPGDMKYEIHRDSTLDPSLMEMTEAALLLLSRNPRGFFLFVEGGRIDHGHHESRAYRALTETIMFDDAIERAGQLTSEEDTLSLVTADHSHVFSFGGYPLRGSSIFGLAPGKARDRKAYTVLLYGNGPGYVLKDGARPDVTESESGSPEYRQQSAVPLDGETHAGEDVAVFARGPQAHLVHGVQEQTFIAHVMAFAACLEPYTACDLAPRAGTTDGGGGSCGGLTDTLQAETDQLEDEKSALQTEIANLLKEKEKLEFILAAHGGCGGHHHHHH
Procedure: (§1) Binding kinetics were determined using the Biolayer Interferometry (BLI) Octet K2 or R4 system (Sartorius). […] For KD apparent measurements, the ALPP proteins were immobilised in sodium acetate pH5 buffer to AR2G sensors using amine coupling. To measure 1:1 interactions, AHC biosensors were used to immobilise Fc-fused proteins. All assays were conducted in HBS-EP with a plate temperature of 25° C. Ka (M⁻¹s⁻¹), Kd (s⁻¹) and KD (nM) values were determined using Octet Data Analysis High Throughput software (Sartorius) for Biolayer Interferometry.

[2] = target: T2, Human ALPP (leucine zipper) (human); test: BLI, KD 1:1 (Fc fusion captured on AHC sensor)
T2 construct: Soluble human ALPP fused to a disulphide stabilised leucine zipper and a His tag; The whole entry is the construct; also called hALPP; PLAP
T2 chain: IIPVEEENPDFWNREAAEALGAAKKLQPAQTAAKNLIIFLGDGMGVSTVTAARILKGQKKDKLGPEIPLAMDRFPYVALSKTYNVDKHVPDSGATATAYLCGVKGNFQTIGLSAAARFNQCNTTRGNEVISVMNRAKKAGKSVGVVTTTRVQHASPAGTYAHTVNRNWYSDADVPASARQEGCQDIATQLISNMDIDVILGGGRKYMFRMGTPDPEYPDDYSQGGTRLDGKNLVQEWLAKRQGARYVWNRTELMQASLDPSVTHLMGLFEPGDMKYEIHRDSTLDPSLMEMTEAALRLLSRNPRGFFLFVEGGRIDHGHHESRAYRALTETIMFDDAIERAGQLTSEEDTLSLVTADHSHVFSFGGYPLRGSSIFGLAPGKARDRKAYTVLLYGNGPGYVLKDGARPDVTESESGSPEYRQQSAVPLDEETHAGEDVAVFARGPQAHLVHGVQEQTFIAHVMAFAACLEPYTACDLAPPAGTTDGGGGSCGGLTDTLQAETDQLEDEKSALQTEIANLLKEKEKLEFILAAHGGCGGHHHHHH
Procedure: as §1

ALPI His = target: T3, ALPI His (human, UniProt P09923 20-503); test: BLI
T3 construct: Soluble ALPI with a C-terminal G4S-His6; also called hALPI; ALPI His homodimer
T3 sequence: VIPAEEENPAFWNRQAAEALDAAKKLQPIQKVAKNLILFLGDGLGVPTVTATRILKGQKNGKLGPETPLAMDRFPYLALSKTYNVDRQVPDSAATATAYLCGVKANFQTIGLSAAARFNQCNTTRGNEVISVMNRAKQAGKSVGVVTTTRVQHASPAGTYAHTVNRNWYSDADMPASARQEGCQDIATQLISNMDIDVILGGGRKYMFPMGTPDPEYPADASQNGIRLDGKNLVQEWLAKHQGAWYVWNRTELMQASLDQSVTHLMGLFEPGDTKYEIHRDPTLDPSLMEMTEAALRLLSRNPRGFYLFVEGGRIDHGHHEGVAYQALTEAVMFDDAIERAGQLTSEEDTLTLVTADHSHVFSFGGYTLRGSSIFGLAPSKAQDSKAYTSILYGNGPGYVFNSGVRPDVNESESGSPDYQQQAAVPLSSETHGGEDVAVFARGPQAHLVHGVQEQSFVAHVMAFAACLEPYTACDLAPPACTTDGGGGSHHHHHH
Procedure: as §1

[3] = target: T4, Human ALPL (leucine zipper) (human); test: BLI
T4 construct: Soluble human ALPL fused to a disulphide stabilised leucine zipper and a His tag; also called hALPL; TNAP
T4 chain: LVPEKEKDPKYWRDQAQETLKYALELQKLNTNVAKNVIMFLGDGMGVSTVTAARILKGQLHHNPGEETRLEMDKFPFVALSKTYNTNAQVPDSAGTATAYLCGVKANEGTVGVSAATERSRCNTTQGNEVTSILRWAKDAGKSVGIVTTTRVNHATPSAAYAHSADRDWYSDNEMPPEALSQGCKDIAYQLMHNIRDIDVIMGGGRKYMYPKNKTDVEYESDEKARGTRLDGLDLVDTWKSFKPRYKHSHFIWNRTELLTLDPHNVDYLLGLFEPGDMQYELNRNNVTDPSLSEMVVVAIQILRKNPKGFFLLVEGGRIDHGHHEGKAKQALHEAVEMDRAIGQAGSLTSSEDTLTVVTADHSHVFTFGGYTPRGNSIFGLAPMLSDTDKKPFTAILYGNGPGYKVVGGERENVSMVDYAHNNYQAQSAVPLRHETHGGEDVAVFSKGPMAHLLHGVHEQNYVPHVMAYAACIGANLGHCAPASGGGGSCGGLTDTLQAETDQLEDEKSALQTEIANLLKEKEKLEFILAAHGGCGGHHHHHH
Procedure: as §1

[4] = target: T1, Human ALPPL2 (leucine zipper); test: BLI, KD app (antigen immobilised on AR2G sensor)
Procedure: as §1

[5] = target: T2, Human ALPP (leucine zipper); test: BLI, KD app (antigen immobilised on AR2G sensor)
Procedure: as §1

B1: A06 E06-hFc (S239C), [G4S]3 linkers (Fc fusion)
chain 1: QVHLVESGGGLVQAGGSLRLSCAASGRTFLSMGWFRQAPGKEREFVAAISWTGGSTGYADSVKGRFTISRESDKETMYLQMNSLKPEDTAVYYCAARGDVYYGGDDATRYKYWGQGTQVTVSSGGGGSGGGGSGGGGS[human IgG1 Fc with C220S S239C T366Y (EU numbers) not spelt out]
chain 2: QVHLVESGGGLVQAGGSLRLSCAASRRSFSEYAMGWFRQAPGKEREFVAAIGWSGVIEYADSVKGRFTISRDNAKDTVYLQMNSLKPEDTAVYYCAAGLGIRVVSQTPAYWGQGTQVTVSSGGGGSGGGGSGGGGS[human IgG1 Fc with C220S S239C Y407T (EU numbers) not spelt out]
notes: Biparatopic knobs-into-holes heterodimer
For B1, the Kd [1] was < 0.01 nM, the koff [1] was < 1e-07 s⁻¹ and the kon [1] was 689000 M⁻¹ s⁻¹. For the same binder, the Kd [2] was < 0.01 nM, the koff [2] was < 1e-07 s⁻¹ and the kon [2] was 450000 M⁻¹ s⁻¹. The binding result (ALPI His) was “no binding”, the binding result [3] was “no binding” and the koff [4] was 3.74e-05 s⁻¹. For the same binder, the kon [4] was 434000 M⁻¹ s⁻¹, the Kd [5] was < 0.01 nM and the koff [5] was < 1e-07 s⁻¹. The kon [5] was 443000 M⁻¹ s⁻¹.

B2: A06 E10-hFc (S239C), [G4S]3 linkers (Fc fusion)
chain 1: QVHLVESGGGLVQAGGSLRLSCAASGRTFLSMGWFRQAPGKEREFVAAISWTGGSTGYADSVKGRFTISRESDKETMYLQMNSLKPEDTAVYYCAARGDVYYGGDDATRYKYWGQGTQVTVSSGGGGSGGGGSGGGGS[human IgG1 Fc with C220S S239C T366Y (EU numbers) not spelt out]
chain 2: QVQLVESGGGLVQAGGSLRLSCAVSGRALSDYNIGWFRQAPGKEREFVARKTWDGSSTRYDDSVKGRFTVSIEDAKNTAYLQMSSLKTEDTAVYYCAAGRYSRARGWEYDYWGQGTQVTVSSGGGGSGGGGSGGGGS[human IgG1 Fc with C220S S239C Y407T (EU numbers) not spelt out]
notes: Biparatopic knobs-into-holes heterodimer; also called #606
In the case of B2, the Kd [1] is reported as < 0.01 nM, the koff [1] is reported as < 1e-07 s⁻¹ and the kon [1] is reported as 624000 M⁻¹ s⁻¹. The Kd [2] was < 0.01 nM, the koff [2] was < 1e-07 s⁻¹ and the kon [2] was 452000 M⁻¹ s⁻¹. The binding result (ALPI His) was “no binding”, the binding result [3] was “no binding” and the Kd [4] was 0.138 nM. The koff [4] was 4.91e-05 s⁻¹, the kon [4] was 356000 M⁻¹ s⁻¹ and the Kd [5] was < 0.01 nM. The koff [5] was < 1e-07 s⁻¹ and the kon [5] was 474000 M⁻¹ s⁻¹.

B3: A06 F05-hFc (S239C), [G4S]3 linkers (Fc fusion)
chain 1: QVHLVESGGGLVQAGGSLRLSCAASGRTFLSMGWFRQAPGKEREFVAAISWTGGSTGYADSVKGRFTISRESDKETMYLQMNSLKPEDTAVYYCAARGDVYYGGDDATRYKYWGQGTQVTVSSGGGGSGGGGSGGGGS[human IgG1 Fc with C220S S239C T366Y (EU numbers) not spelt out]
chain 2: QVQLVESGGGLVQAGGSLRLSCAASGRAFGDYNIGWFRQAPGKEREFVARRTWDGSSTRYDDSVKGRFTVSIDNAKNTAYLQMNSLKTEDTAVYYCAAGRYSRVRGWEYDYWGQGTQVTVSSGGGGSGGGGSGGGGS[human IgG1 Fc with C220S S239C Y407T (EU numbers) not spelt out]
notes: Biparatopic knobs-into-holes heterodimer; also called #611
B3 was tested, and the Kd [1] was < 0.01 nM, the koff [1] was < 1e-07 s⁻¹ and the kon [1] was 600000 M⁻¹ s⁻¹. For the same binder, the Kd [2] was < 0.01 nM, the koff [2] was < 1e-07 s⁻¹ and the kon [2] was 398000 M⁻¹ s⁻¹. For the same binder, the binding result (ALPI His) was “no binding”, the binding result [3] was “no binding” and the Kd [4] was 0.272 nM. It also gave a koff [4] of 0.000144 s⁻¹, a kon [4] of 531000 M⁻¹ s⁻¹ and a Kd [5] of 0.0204 nM. It also gave a koff [5] of 7.33e-06 s⁻¹ and a kon [5] of 359000 M⁻¹ s⁻¹.
